The RNAGym collection of RNA variant scans (doi:10.1073/pnas.2313332121)
Variants at the background level are over-represented here.

B1: TPR 5TU (parent)
chain: GGAUCUUCUCGAUCUAACAAAAAAGACAAAUCUGCCACAAAGCUUGAGAGCAUCUUCGGAUGCAGAGGCGGCAGCCUUCGGUGGCGCGAUAGCGCCAACGUUCUCAACUAUGACACGCAAAACGCGUGCUCCGUUGAAUGGAGUUUAUCAUG

Variants of: B1
Test: polymerase ribozyme fitness, log enrichment relative to wild type (log ratio); higher = more active; in vitro selection for triplet polymerase activity
Outline: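 Mutant libraries for each subunit of a heterodimeric triplet polymerase ribozyme were made by PCR and then transcribed. Each library underwent one round of in vitro selection in triplicate: annealing with a biotinylated primer, the partner subunit and triplets, frozen incubation at −7 °C, gel excision of extended constructs, streptavidin-bead capture and RT-PCR. Input and output libraries were Illumina-sequenced, and only genotypes with ≥10 input reads and ≥1 read per output were kept. Fitness is the logarithm, base 2, of genotype enrichment over wild-type enrichment, computed from inverse-variance-weighted replicate averages.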

Polymerase ribozyme fitness (log ratio), ≤ -4.2:
A23U G140C
A24C C51G U56A A89C C103A U144G U145G
A24C C85U U104G A138U
A24C U33A C35G U53A U82C G92U G136A
A24C A49U C87A G92A G140U
A24G C76A C85A A110C C131G
A23U G88A A91C C114U C125A
A24G G34C G70A G81U C95U C105A A147G
A23U G83U G94U U104A U134A G136U C149G
A24C G58A G59A A147C
A23U U82G G83A C105U C149A
A24C A41C G88A C99U
A24G C27G A28G C32A U55A U56A C76A C85A G92C U130G
A24G G46A G50A C57G G92U U145A
A23U U44A C93G U102A
A24C A49U G92U
A24C C32G C87A U146C
A24C C93A
A24C A29C C35A G124U
A24G C57A A64G C75G C129A
A23U G86U
A24C A49C C57A G80A C87U U90C
A24G A28G C72U G94U A98U C99A A150C
A23U G67U G68U U77A U104G C129A
A24G C76G G86A A91U A97G G140C
A24C U31A A52C U53A G58C G88A U109G
A24G C93A
A23U U33G U44A G81A A91G C116U C123G U127C
A24G A52C G68A U151G
A24G C32U A41C G48A G74A U130G G136A
A24C C69A
A24G A37U G70C C76G A138U
A24C C35A A40C U55G U56A G59U
A24C G74U A119G
A23U G83C G88A A98U A120U C131G A150C
A24G C36G U56A C103G A106U C118A
A24G C57A G59U C75A U90G C103G C108U A110C G133U G141C
A24C C27G C36A C95U C99U G124U C129G
A24G A49C C51A U78G G81C
A23U G68A A73U C99U
A24G C38G A40U A110C
A24C C32G U33C C57A C95U C103G C105U
A24G C75U G84U
A24C A40U G94A C116A
A24C G34A G48C U78C G136U
A24C U33G G133U U145G
A24C G59A A91C A120G
A23U U45A U53A A60G C76A G83U C85A C87G C114G C118U A122G
A24C A73G G86U C99G C149G
A24C G42A C76U U77G
A23U U44A U55A A122U
A24C U44A A97C A98U U101G U134A
A24C A26C G58A G74A C85G U139C G141A G143A
A24C A39G U56A A64G G83C C87A U101C
A24G C54G G68U C76G G81A C85G C118U
A24C U56A G59A C93A U127A
A24C C75A C76A C95U A120U
A24C U56A U77A G88U A115C A121U U144A
A24G G50C C87U
A24C C36G C51A C85A A115U
A23U G58C G100U G141C
A24C C85A A89U C99A G124A G141U
A24C G42C G48C G88A C93A G141U
A24G A40C A52G C54G C85A C96U C99G
A24G C27G G50A A73G G84A C85A A89G C99G G126U U130C
A24C G42C G94U U101C U144C
A24C G46A U90G G94U A106G
A23U G80C G83A C118A G133A
A24G A52G G84A C87G A98U C108U C118U G133U
A24C G46C C132A
A24G A73G G92U G133U G141A
A24C G65C G86U
A23U U61A C87A C108A U109C
A24G C36U C87U G133C
A24C A66G C96G C103A A120G
A24G C32U C35G A64U C96A U135C U146A
A23U G83U C93A G126U C129U
A24C A41C A150G
A24G C36A G50A U77A G84A
A24C C93U C125U U148G
A24C C75G A107U
A24C A41C G84U
A24C A30G U55A G88U C105U U134C U144C
A24C G94A C95U A115U C116U A142G G143C
A24C G68A C76U C93A U139G A142G
A24C A28G U53A U134A
A24C A41C C69U C79A C85A C99U A119C U130C
A24C C54U U56A C69G C85A C103U U148G
A24C A37C U53A A66U C95A C114G U135C U144A
A24G A37G A39U A137G G143U
A24C G74C
A24G C54A U55A A91G C123U U127A U139A U145A
A24G G50A C72U G88C
A24C G67C C87U A122U A142G
A24C U55A A73U A98G U109C U135A G140U
A24G A28C A30U G58A C96U C103U
A24C G50U C95A U127A G136U G141C C149G
A23U G71A C85A U144G
A24C U78A G92C
A24C C118U C129G
A24C A52U U53A U61A C76A U78G U104G
A24C A41C
A24C A49G C79G G86A A107U
A24G A41C G88U C95U G141U
A24C A29C C87A A89U G141C
A24G C69A G86A G88A C99A A137U
A24G C27A U61A U78C C103U C114U
A24C C32U A39U U90A C95G A138U U144A
A24G A47U A89U A98U U144A A150G
A24G A26U A40C U44A G80C
A24C U33G U55A G92A U135A
A24C C32A A121U U145C U146C
A24C C99U U102G A110G U130G G133U U146A
A24C G83A C87G A142U
A24G C54U C76G C85G C114U
A24G C35U A89U G92C C125A
A24C G92U U146A G152C
A24C A47U A49C C54U C75G C85A U130G
A23U U78G C93U C95U
A24G C38G A40U G84C U90G G141A
A24G C51G G59C G92C C99U C125U
A24C A39C U77G C125G
A23U G50U C95A U146G
A24G G25A G84A C125G G152A
A24G G48U C54A G92C G141A U151A
A24C U33A A49G U55A G70U C96G U101G C105G A120U G141A
A24G C38U U55A G58A A60C A73G C95A
A24G C87G C93U C103U A106U G141C
A24C C35G C36A C87U A98G C105U U109C A110U C116A A142U
A23U U55A C69A A73U U127A
A23U G80U A91U G143C A150G
A24C G68U A121G U151G
A23U G83C A115G A137G
A24C A28U U31A A122C G141C G152U
A24C C57G G58C G88A C116U G124A G141C
A24C A30U G48C C96U
A23U G50C A89U C95A C103A A110U A113G C116G G143U U144A U148G
A24C C43U C54U G86U G94C C99U U145G
A24G A66U C69A G81A C85U A137G
A23U U31G C38U C69U C85G C87U G126U
A24C C57U U61A C95G
A24C G74A G81A C93U C108G A137U U146G
A24C U53G C93A C125U U130A A138C
A24G C36A C96U U151G
A23U U33A A41C A47U U102C U135A
A24G A60U C75G G133U U145G
A23U U61A A64C G65A U139C
A24C G58A
A24G C87A C118U G140C
A23U G88U A89U C96G
A23U U31C G70A G83U U127C G128U G143A
A24C A37C G59A C99G A107U
A24C A52C U53G C96G A97G U127A U135G U144G U146C
A24C A30G U44G G71U U139G U148A C149G
A24G A47G G48U C57U A64C G67A C75G C87U C96G C108G A113C G133C
A24G A52C C93U C105A A120C G126U C149A A150C
A24C C36A A49U G65A U82G G92C U130A U139G
A23U U55A U61C G67A C87U G126U G136C G140U
A24C G50A G59A U61A C63G G84A
A23U G94A A138C
A24G C38U A49C U82A C87A C116U G126U A142G
A24C G81U C87G U104G A110U
A24G A52G G84A C87G U101G A119G G141U
A23U G59A G62C C95A
A23U U31A G42C C54U G68U C95G
A24C G48C G58A A89C A97U C103A
A24G C35A A64G G68U A91U U109A G126U A137U G152U
